Each structure is given as a SMILES string. For part of its entries the source gives two or more results. This is not the full list of results. An entry can have further records. Results that share an entry seem to repeat one measurement; one of them may be the mean.

In this test the test system is Human umbilical vein endothelial cells (HUVEC). The test can be described thus: HUVEC proliferation assay, VEGF-dependent growth ([3H]-thymidine incorporation). The format is cell-based. As for the experimental part:
Cells were plated into 96-well dishes (4000 cells per well) and allowed to attach overnight. HUVEC were rinsed one time with 100 μl of EBMc-V (EBM supplemented with all above components except serum or VEGF), then 50 ul of EBMc-V was added to cells. Compounds were prepared at 200× stocks in DMSO, diluted into EBMc-V media as 4× stocks, then 50 ul added to appropriate wells. Finally, 100 μl of 2×VEGF (100 ng/ml prepared in EBMc-V; final 50 ng/ml VEGF) was added to all VEGF-treated wells. EBMc-V (no VEGF) was added to negative control wells. Parallel compound-treated plates were prepared except that 100 μl of EGM2 media containing 2% serum but lacking VEGF (EGMc-V) was added. Cells were incubated for 4-5 days at 37° C.
DNA synthesis was assessed by thymidine incorporation. Cells were incubated for 5 hours in 1 μCi of [^3H]-thymidine (PerkinElmer) by addition of 10 ul of 0.1 μCi/ul thymidine prepared in PBS to each well. After incubation, media was aspirated and the cells trypsinized and collected onto a mat using a vacuum-based Micro Cell Harvester (Skatron). [^3H]-thymidine was counted in a liquid scintillation counter. Compounds evaluated for ability to inhibit VEGF-dependent growth of human umbilical vein endothelial cells (HUVEC).

For the compound `COCCOc1cc2ncnc(NC3=CC(=O)C(Oc4ccc(-n5ccnc5)cc4)=CC3=O)c2cc1OC` [Example 26, 2-[4-(1H-imidazol-1-yl)phenoxy]-5-{[6-methoxy-7-(2-methoxyethoxy)quinazolin-4-yl]amino}benzo-1,4-quinone], the “% Inhibition of VEGF-dependent growth of HUVEC” value reads like this: (conc. 100 nM) 10%, −5%, 43%, 9%, 7% [lines of one column]; (conc. 1000 nM) 12, 15, 34, 13, 20% [lines of one column].

These data come from patent US20070299092A1, “Quinone Substituted Quinazoline and Quinoline Kinase Inhibitors” (Wyeth, priority 2004, published 2007).
